From PubChem BioAssay AID1347120 (National Center for Advancing Translational Sciences (NCATS), 2019)
Hit rate of the full screen: of about 390,000 compounds, about 930 (0.24%) were called active. The inconclusive results got no clear call from the source; some entries with a clear call stand among them for comparison. Calls come from the whole dose curve; as a rule, active = well fitted activation curve with a large enough effect; inconclusive = small, poorly fitted or top-dose-only effect; inactive = no such curve, though single readings can be large or run the other way. A potency beside an inconclusive call is a rough fit, not a confirmed value.
Potency is the fitted concentration of half-maximal effect; tags give direction and shape of the fitted curve.

Test: qHTS for Suppressors of FUS Proteinopathy: Primary screen using FUS-linked yeast assay; note: nearly all actives have a fitted effect of over 55% in size
Details: S. cerevisiae FUS-expressing, OD600, 24 h; Potency: growth rescue; series mostly up to 76.6 µM
Outline: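 Read-out: OD at 600 nm after 24hr at 30C, reporting rescue of FUS-induced yeast toxicity. Cells at OD 0.005 in galactose (2%) minimal medium; compounds tested in a dilution series; CP55940 titration from 92uM final as control.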
In the case of `CCCCOc1ccc(S(=O)(=O)NC(=O)C2(C)CCN2C(=O)c2cccc(F)c2)cc1` (stereo not drawn), the Potency is reported as inconclusive: 35.5 µM [activator, single point].
In the case of `OC[C@@H]1[C@@H](c2ccccc2)C(c2cccc(Cl)c2)=NN1c1ccccc1`, the Potency is reported as inconclusive: 28.2 µM [activator, single point].
With `CC[n+]1c(/C=C2/C=C(C)CC(C)(C)C2)sc2ccc(OC)cc21` the Potency was inconclusive: 50.1 µM [activator, single point].
With `CCc1n[nH]c(=S)n1N=C1CCC(C)CC1` (stereo not drawn) the Potency was “inactive”.
With `O=C(Nc1ccccc1N1CCCC1)C1CCN(S(=O)(=O)c2cccc(C(F)(F)F)c2)CC1` the Potency was inconclusive: 50.1 µM [activator, single point].
In the case of `CCc1ccc(NC(=O)c2cc3c(C)nc4ccccc4c3o2)cc1`, the Potency is reported as inconclusive: 50.1 µM [activator, partial curve, poor fit].
With `O=C1C(=Cc2cn(-c3ccccc3)nc2-c2ccc(OCc3ccc(Cl)cc3)cc2)SC(=S)N1CCS(=O)(=O)O` the Potency was inconclusive: 50.1 µM [activator, single point].
In the case of `COc1ccc(/C=C/C(=O)OCC(=O)Nc2cccc(S(=O)(=O)NC3=NCCCCC3)c2)cc1`, the Potency is reported as inconclusive: 28.2 µM [activator, single point].
In the case of `Cc1ccc(N2C(=O)c3ccccc3C2Nc2ccc(S(=O)(=O)N3CCCCC3)cc2)nc1` (stereo not drawn), the Potency is reported as active: 35.5 µM.
With `O=C(Cc1ccc(Cl)cc1)Nc1ccc(S(=O)(=O)Nc2cnc3ccccc3n2)cc1` the Potency was inconclusive: 35.5 µM [activator, partial curve, poor fit].
In the case of `O[C@@H]1CN(Cc2cccs2)[C@@H](c2ccc(Cl)cc2)C[C@H]1n1cc(-c2ccc(F)cc2)nn1`, the Potency is reported as “inactive”.
For `Cc1ccccc1C(=O)NNC(=S)NC(=O)COc1ccccc1`, the Potency was “inactive”.
With `NC(=O)c1ccc2c(=O)n3c(-c4cc(Cl)c(N)c(Cl)c4)csc3nc2c1` the Potency was inconclusive: 31.6 µM [activator, single point].
For `Cc1ccc(CNC(=O)COC(=O)Cn2nc(C)c([N+](=O)[O-])c2C)cc1`, the Potency was “inactive”.
For `CNC(=S)Nc1ccc(-c2nc3ccc(C)cc3s2)cc1`, the Potency was inconclusive: 3.98 µM [activator, partial curve, poor fit].
In the case of `COc1ccccc1C(=O)Nc1ccc2c(c1)nc1n2CCN(C2CCCCC2)C1`, the Potency is reported as inconclusive: 22.4 µM [activator, partial curve, poor fit].
In the case of `CCn1c(CCNC(=O)c2cccs2)nnc1SCC(=O)Nc1cccc(Cl)c1`, the Potency is reported as “inactive”.
With `Cc1ccc(S(=O)(=O)N2CCOCC2)cc1C(=O)N1C(=O)c2cccc(N)c2C1=O` the Potency was inconclusive: 44.7 µM [activator, single point].
For `COc1ccc(CCNC(=O)C2CC(=O)N(c3ccc(Br)cc3)C2)cc1OC` (stereo not drawn), the Potency was “inactive”.
With `Brc1ccc(Oc2nnnn2-c2ccccc2)cc1` the Potency was “inactive”.
For `O=C(CC1C(=O)N(c2ccccc2)C(=O)N1CCc1cccs1)Nc1ccc(Cl)cc1` (stereo not drawn), the Potency was inconclusive: 39.8 µM [activator, single point].
For `COc1ccccc1-n1c(SCC(=O)Nc2ccccc2C)nc(O)cc1=O`, the Potency was inconclusive: 39.8 µM [activator, partial curve, poor fit].
In the case of `COC(=O)[C@]12CCCCC=C1N(CCc1ccc(OC)c(OC)c1)C(=O)[C@H](CC(=O)NCCc1ccccc1OC)C2`, the Potency is reported as inconclusive: 7.94 µM [activator, partial curve].
In the case of `COCCCNC(=S)N1CCN(c2nc(-c3ccc(F)cc3)cs2)CC1`, the Potency is reported as inconclusive: 20 µM [activator, partial curve, poor fit].
With `COCCNC(=S)N/N=C/c1c2ccccc2cc2ccccc12` the Potency was “inactive”.
For `COC(=O)c1c(NC(=O)COc2ccc(OC)cc2)sc2c1CCC(C)C2` (stereo not drawn), the Potency was inconclusive: 15.8 µM [activator, partial curve, poor fit].
With `Cc1ccc(S(=O)(=O)Nc2cccc3c2O[C@H](CN(C)C(=O)Nc2ccc(C(F)(F)F)cc2)[C@@H](C)CN([C@H](C)CO)C3=O)cc1` the Potency was inconclusive: 25.1 µM [activator, single point].
With `Cc1ccc(S(=O)(=O)N2CCOCC2)cc1NC(=O)CSc1nnc2cc(C)c3ccccc3n12` the Potency was inconclusive: 14.1 µM [activator, partial curve].
For `CCN(CC(=O)NCc1cccs1)C(=O)c1ccc(S(=O)(=O)N(CC)c2ccccc2)cc1`, the Potency was inconclusive: 17.8 µM [activator, partial curve].
For `CCOC(=O)N1CCc2c(sc(NCc3cccc(F)c3)c2C(=O)Nc2ccc(OC)cc2OC)C1`, the Potency was inconclusive: 17.8 µM [activator, partial curve, poor fit].
In the case of `CCn1c(SCC(=O)Nc2cccc3ccccc23)nnc1-c1cccs1`, the Potency is reported as “inactive”.
With `Cc1ccccc1NC(=O)c1ccc2nccnc2c1` the Potency was inconclusive: 14.1 µM [activator, partial curve, poor fit].
In the case of `Cc1noc(C)c1S(=O)(=O)N(C)C[C@H]1Oc2c(NC(=O)NC3CCCCC3)cccc2C(=O)N([C@H](C)CO)C[C@@H]1C`, the Potency is reported as inconclusive: 8.91 µM [activator, partial curve].
For `CC1=C(C(=O)OCc2ccccc2)C(c2ccc(-c3ccccc3)cc2)NC(=O)N1CCCCCC(=O)O` (stereo not drawn), the Potency was inconclusive: 25.1 µM [activator, single point].
With `Cc1ccccc1C(=O)NC1CCCCN(Cc2cccc(C(F)(F)F)c2)C1=O` (stereo not drawn) the Potency was “inactive”.
With `O=C(N1CCOCC1)N1CCN(c2nc(-c3ccc(F)cc3)cs2)CC1` the Potency was “inactive”.
For `COc1ccc(-c2nc(-c3ccccc3)nc(Cl)c2C#N)cc1`, the Potency was inconclusive: 20 µM [activator, partial curve, poor fit].
For `CCOC(=O)c1ccc(S(=O)(=O)N2CCN(C(=O)c3nn(C)c(=O)c4ccccc34)CC2)cc1`, the Potency was inconclusive: 22.4 µM [activator, partial curve].
For `O=C(C[n+]1cnn(CC(=O)c2ccc(Cl)cc2Cl)c1)c1ccc([N+](=O)[O-])cc1`, the Potency was inconclusive: 35.5 µM [activator, partial curve, poor fit].
In the case of `C#CCNC(=O)C[C@H]1C[C@@]2(C(=O)OC)C(=C[C@H](C(C)(C)C)O[C@@H]2C)N(Cc2cccc3ccccc23)C1=O`, the Potency is reported as inconclusive: 28.2 µM [activator, single point].
With `CCc1nnc(NC(=O)[C@@H](NC(=O)c2ccc(C(C)(C)C)cc2)C(C)C)s1` the Potency was active: 28.2 µM.
For `CCc1ccc(NC(=O)CC2C(=O)N(c3cccc(C)c3)C(=O)N2CCC(C)C)cc1` (stereo not drawn), the Potency was inconclusive: 35.5 µM [activator, single point].
For `CS(=O)(=O)N(CCC(=O)O)Cc1ccccc1`, the Potency was inconclusive: 0.794 µM [activator, partial curve, poor fit].
For `COc1ccc(NC(=O)CSc2nc3ccccc3nc2N2CCC(C)CC2)cc1`, the Potency was “inactive”.
With `CN(Cc1ccccc1)C(=O)c1ccc(NC(=O)Cc2cccc(NC(=O)C3CCCN(C(=O)CCc4ccccc4)C3)c2)cc1` (stereo not drawn) the Potency was inconclusive: 50.1 µM [activator, single point].
With `C/C(=N\NC(=O)Cc1ccc(O)cc1)c1cccnc1` the Potency was “inactive”.
For `CCC(C)C(=O)N1CCc2cc(-c3csc(N)n3)ccc21` (stereo not drawn), the Potency was inconclusive: 20 µM [activator, partial curve, poor fit].
For `CCOc1cc(/C=N/NC(=O)CNc2ccc(C)cc2)ccc1OC(=O)c1ccccc1`, the Potency was inconclusive: 44.7 µM [activator, single point].
For `COc1ccc2[nH]c3c(c2c1)CCN[C@]31C(=O)N(Cc2cn(Cc3ccccc3)nn2)c2ccccc21`, the Potency was inconclusive: 35.5 µM [activator, single point].
In the case of `COc1ccc(OC)c(NC(=O)c2c(NCc3sccc3C)sc3c2CCCCC3)c1`, the Potency is reported as inconclusive: 15.8 µM [activator, partial curve, poor fit].
For `NC(=O)[C@H]1CC2(CC(c3cccc(NC(=O)COc4ccc(Cl)cc4)c3)=NO2)CN1C(=O)C(c1ccccc1)c1ccccc1` (stereo partly drawn), the Potency was inconclusive: 12.6 µM [activator, partial curve, poor fit].
With `COc1ccc(C(=O)O[C@@H]2CCC[C@@]3(C(=O)N(Cc4ccccc4)c4ccccc43)[C@H]2NC(=O)CCc2ccccc2)cc1OC` the Potency was inconclusive: 22.4 µM [activator, partial curve, poor fit].
For `CC(=O)Nc1ccc(S(=O)(=O)NCCC(=O)N2CCN(C(c3ccccc3)c3ccccc3)CC2)cc1`, the Potency was inconclusive: 25.1 µM [activator, partial curve, poor fit].
With `CN(C)CCCNCC(=O)c1c(-c2ccccc2)n(C)c2ccccc12` the Potency was “inactive”.
For `COc1cc(/C=N/NC(=O)COc2ccc(C)cc2)ccc1OC(=O)c1cccs1`, the Potency was inconclusive: 39.8 µM [activator, single point].
For `CCC1(c2ccccc2)NC(=O)N(CC(=O)Nc2cc(S(=O)(=O)N3CCCCC3)ccc2OC(C)C)C1=O` (stereo not drawn), the Potency was inconclusive: 39.8 µM [activator, partial curve, poor fit].
For `COC(=O)[C@@]12C[C@@H](CC(=O)N3CCCCC3)C(=O)N(Cc3cccc4ccccc34)C1=CCC(C)(C)C2`, the Potency was inconclusive: 25.1 µM [activator, single point].
With `COC(=O)[C@]12C[C@H](CC(=O)N3CCN(C(=O)C4CC4)CC3)C(=O)N(Cc3cccc4ccccc34)C1=C[C@H](C(C)C)O[C@@H]2C1CC1` the Potency was inconclusive: 14.1 µM [activator, partial curve, poor fit].
